# According to publication PMC4336329 (PLoS ONE, 2015):
# Hit rate of the full screen: of about 310,000 compounds, about 14,000 (4.5%) showed an effect of 50% or more. The effect is printed as a negative number. The list shows a part of the results.
# Target: human ether-à-go-go-related gene (hERG) potassium channel (human, UniProt Q12809)
# Assay: primary screen, population patch clamp on CHO cells stably expressing hERG
# 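Also: peak tail current of the secondary pulse compared with the same well before compound.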
# Chain of human ether-à-go-go-related gene (hERG) potassium channel (Q12809 whole entry, looked up): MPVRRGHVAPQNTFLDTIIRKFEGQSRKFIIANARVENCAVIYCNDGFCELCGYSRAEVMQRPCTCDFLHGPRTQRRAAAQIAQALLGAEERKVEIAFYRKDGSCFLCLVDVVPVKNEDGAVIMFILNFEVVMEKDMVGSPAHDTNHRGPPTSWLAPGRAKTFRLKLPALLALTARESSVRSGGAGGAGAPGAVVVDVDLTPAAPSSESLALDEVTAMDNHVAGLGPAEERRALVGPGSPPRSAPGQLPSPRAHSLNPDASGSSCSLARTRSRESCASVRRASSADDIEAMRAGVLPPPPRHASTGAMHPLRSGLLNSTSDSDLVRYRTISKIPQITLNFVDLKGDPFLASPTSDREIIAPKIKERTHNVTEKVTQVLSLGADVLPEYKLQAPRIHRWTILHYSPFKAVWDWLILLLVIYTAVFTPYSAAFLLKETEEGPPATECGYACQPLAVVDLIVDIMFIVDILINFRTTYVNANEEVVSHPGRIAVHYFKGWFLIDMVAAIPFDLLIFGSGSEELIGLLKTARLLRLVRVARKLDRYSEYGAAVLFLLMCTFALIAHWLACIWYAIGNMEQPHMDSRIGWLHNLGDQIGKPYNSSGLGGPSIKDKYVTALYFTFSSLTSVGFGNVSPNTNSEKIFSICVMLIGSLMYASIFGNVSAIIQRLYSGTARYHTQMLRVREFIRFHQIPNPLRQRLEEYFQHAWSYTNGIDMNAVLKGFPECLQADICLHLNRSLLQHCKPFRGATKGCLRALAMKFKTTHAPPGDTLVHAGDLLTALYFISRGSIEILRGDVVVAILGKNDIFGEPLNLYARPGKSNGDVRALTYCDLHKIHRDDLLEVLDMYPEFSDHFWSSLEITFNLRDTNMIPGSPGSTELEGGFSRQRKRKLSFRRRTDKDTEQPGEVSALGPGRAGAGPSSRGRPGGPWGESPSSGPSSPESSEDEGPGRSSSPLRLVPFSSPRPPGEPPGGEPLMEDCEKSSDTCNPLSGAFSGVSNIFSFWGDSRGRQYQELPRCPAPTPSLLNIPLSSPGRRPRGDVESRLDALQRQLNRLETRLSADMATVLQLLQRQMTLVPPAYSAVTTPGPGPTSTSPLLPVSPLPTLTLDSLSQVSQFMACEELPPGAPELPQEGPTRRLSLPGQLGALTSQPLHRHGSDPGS
row,SMILES,"hERG current change (%, negative = inhibition) at 10uM"
1,O=C(Nc1ncc(Cc2cccc(Cl)c2)s1)c1cccs1,0.893%
2,COc1ccc(/C=N/NC(=O)c2cccc([N+](=O)[O-])c2)cc1OC,5.28%
3,COc1ccc(OCC(=O)Nc2nonc2NC(=O)COc2ccc(OC)cc2)cc1,13.3%
4,CC(C)NC(=O)C1CCN(Cc2cnn(-c3ccccc3)c2-n2cccc2)CC1,-8.99%
5,CC1=C(C(=O)NC(C)C)C2(CCC(C)CC2)OC1=O (centres unmarked),13.7%
6,CCc1ccc(NC(=O)C(=O)N/N=C(\C)CC(=O)Nc2ccccn2)cc1,-8.33%
7,COc1ccccc1NC(=O)c1cc(C(=O)Nc2ccccc2OC)cc(N2C(=O)CCC2=O)c1,16.9%
8,CC(NC(=O)COc1ccc(N(C)S(=O)(=O)c2ccccc2)cc1)c1ccccc1 (centres unmarked),1.23%
9,Cc1ccc(C(C)NC(=O)/C(C#N)=C\c2c(C)[nH]c3ccccc23)cc1 (centres unmarked),6.88%
10,Cc1ccc(C(=O)OCC(=O)Nc2ccc(N(C)C)cc2)cc1NC(=O)c1ccco1,0.251%
11,Fc1ccccc1-c1nc(-c2ccncc2)no1,1.32%
12,Cc1nnc(NC(=O)c2cccc(S(=O)(=O)N3CCc4ccccc43)c2)s1,-3.52%
13,O=c1ncn(-c2cccc(F)c2)c2ncccc12,18.4%
14,Cc1cc(C)cc(N2CC(C(=O)NC3CCCCC3)CC2=O)c1 (centres unmarked),5.86%
15,COC(=O)c1cc(OC)c(OC)cc1NC(=S)N1CCN(C)CC1,10.8%
16,COc1ccc(/C=N/NC(=O)c2cccnc2)c(C(=O)O)c1OC,9.69%
17,CCN(CC)Cc1cc(C(=O)O)c(-c2ccccc2)o1.Cl,10.5%
18,O=C(O)c1ccc(NS(=O)(=O)c2ccc(C(=O)Nc3ccccc3)cc2)cc1,-8.65%
19,CN(CC(=O)NCC(c1ccccc1)N1CCCC1)S(=O)(=O)c1ccc(Cl)cc1 (centres unmarked),-49.3%

row,SMILES,"hERG current change (%, negative = inhibition) at 10uM"
1,O=[N+]([O-])c1ccccc1-c1ccc(/C=N/n2cnnc2)o1,-29.6%
2,COc1cc2c(cc1OC)CN(c1nc(-c3cccnc3)nc3ccccc13)CC2,0.829%
3,CC(C)(C)c1ccc(C(=O)Nc2ccc(F)cc2)s1,6.85%
4,Cn1nc([N+](=O)[O-])nc1Sc1ccc(C(C)(C)C)cc1,-11%
5,O=C(NC1CCCCC1)N1CCc2ccccc2C1,8.85%
6,COCC(C)NC(=O)CSc1nnc(-c2cccc(S(=O)(=O)N3CCCCC3)c2)o1 (centres unmarked),7.45%
7,C=CCNc1nc(C(F)(F)F)nc2c1nnn2Cc1ccccc1Cl,-6.29%
8,CCc1ccc(-c2csc3ncn(Cc4ccc(C(=O)O)cc4)c(=O)c23)cc1,4.9%
9,O=C(Nc1c(F)cc(F)cc1Br)c1cccnc1,8.61%
10,COc1ccc(OCCCC(=O)OC(C)C(=O)Nc2ccc(NC(C)=O)cc2)cc1 (centres unmarked),11%
11,O=S(=O)(Nc1ncccn1)c1ccc(NC(=S)NCCc2ccc(Cl)cc2)cc1,28.9%
12,CCc1nc(-c2cc3ccc(C)cc3[nH]c2=O)no1,-27.4%
13,CCOC(=O)C1CCCN(C(=O)c2ccc(CNS(=O)(=O)c3ccc(C)cc3)cc2)C1 (centres unmarked),-3.9%
14,CCOC(=O)C1C(=O)OC2(CCCCC2)C1C(=O)OCC (centres unmarked),6.62%
15,CN1C(=O)CC(c2ccccc2)Nc2ccccc21.Cl (centres unmarked),0.871%
16,O=C(CCNC(=O)N1CCn2c1nc1ccccc12)NCc1ccc(F)cc1,-6.29%
17,Cc1cc(C(=O)NC2CCCC2)on1,-10.8%
18,O=C(c1ccc(Cl)c(S(=O)(=O)N2CCCC2)c1)N1CCN(c2ccccc2F)CC1,-20.6%
19,CC(NC(=O)C1CCC(CNc2c(N3CCCCC3)c(=O)c2=O)CC1)c1ccccc1 (centres unmarked),-2.3%

row,SMILES,"hERG current change (%, negative = inhibition) at 10uM"
1,COc1ccc(OC)c(C2C3=C(COC3=O)Nc3cc4c(cc32)OCO4)c1 (centres unmarked),6.75%
2,COCC(C)n1c(C)cc(C(=O)COC(=O)c2ccc3c(c2)NC(=O)CS3)c1C (centres unmarked),2.7%
3,O=C(Oc1oc(-c2ccco2)nc1C=Nc1ccccc1)c1ccoc1,13.6%
4,CCOC(=O)c1sc(N2C(=O)C(O)=C(C(=O)c3ccco3)C2c2ccc(C)o2)nc1C (centres unmarked),6.21%
5,COc1ccccc1NC(=O)C1=C(C)NC(=O)NC1c1ccc(C)cc1 (centres unmarked),5.17%
6,c1ccc(-c2noc(CSc3nnnn3C3CCCCC3)n2)cc1,-17.8%
7,CCn1cc(/C=N/NC(=O)c2ccc3c(c2)OCO3)c(C)n1,8.17%
8,COc1ccc(OC)c(S(=O)(=O)N2CCC(C(=O)N3CCN(c4ccc(F)cc4)CC3)CC2)c1,-78%
9,CCn1c(SCC(=O)N2CCCCC2)nc2c(c1=O)SCC2,8.15%
10,Cc1cc(=O)oc2c(C)c(OCC(=O)NCCCN3CCOCC3)ccc12,14.4%
11,CSc1nc(Cc2ccc(Cl)cc2)nc2ccccc12,-16.7%
12,Cc1noc(C)c1C(=O)OCC(=O)Nc1ccccc1SCC#N,-10.5%
13,COc1cccc(NC(=O)CN(C)C(=O)CSc2nc(C)cc(C)n2)c1,-1.24%
14,C/C(=N\NC(=O)COc1cc(C)cc(C)c1)c1cccc(NC(=O)C2CCC2)c1,-11.1%
15,CC(Oc1ccc2c(-c3ccccc3)cc(=O)oc2c1)C(=O)NCc1ccccn1 (centres unmarked),-50.9%
16,COc1ccc(C2(C(=O)N3CCOCC3)CCCC2)cc1,15.4%
17,O=C(Nc1ccc(Cl)cn1)c1cc(S(=O)(=O)N2CCCCC2)ccc1Cl,-6.08%
18,Cc1cccc(NC(=O)c2onc3c2CCCC3)n1,-9.16%
